Each structure is given as a SMILES string. The list shows a part of the results.

The source of these data is publication PMC12040169 (PLOS Biology, 2025).

This assay concerns T1, C. trachomatis L2/434/Bu expressing GFP (CTL2-GFP).
T1 construct: L2/434/Bu GFP intracellular growth in HeLa cells
Set-up: species or system HeLa; C. trachomatis total inclusion area by high-content imaging, normalised to DMSO. The note with it: total inclusion area; 28.5 h, 10 µM; inhibitor. The procedure, abridged:
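Following bulk GFP and resorufin fluorescence reads, infected cells were fixed, Hoechst-stained and imaged on a high-content platform. Inclusion total area and number per well served as growth proxies; nuclei counts indicated host viability. MICs were derived as for the fluorescence assay.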
On to `CCOC(=O)C1CCCCN1S(=O)(=O)c1ccc(Br)s1` (stereo not drawn) [CBK096110], for which the “% of control remaining” value worked out at 74.4725.

Turning to `O=C([C@H]1O[C@H](CCN2CCN(c3ccccc3)CC2)CC[C@@H]1O)N1CCOCC1` [CBK288724], the “% of control remaining” value is reported as 91.3278.

For `CC(C)Nc1nccnc1Sc1nc[nH]n1` [CBK115205], the “% of control remaining” value is reported as 88.0343.

On to `O=C(Cc1ccccc1C(=O)O)Nc1ccc(-n2cncn2)c(Cl)c1` [CBK286756], for which the “% of control remaining” value is on record as 41.6205.

Regarding `O=C(CCN1C(=O)c2cc(Cl)c(Cl)cc2C1=O)Nc1cccc(-c2cnc3ccccc3n2)c1` [CBK268575], the “% of control remaining” value is on record as 90.877.

`COc1ccc(NC(=O)CCn2ccc3ccncc32)c(C)c1` [CBK282860]: the “% of control remaining” value was 74.0742.

Turning to `CN1CCC(Oc2nc3cc(Cl)c(Cl)cc3nc2N2CCCC2)CC1` [CBK115290], the “% of control remaining” value is recorded as 91.5012.

As to `CCOc1cc(-c2noc(CCC(=O)N3CCN(C)CC3)n2)ccc1OC` [CBK269513], the “% of control remaining” value turned out to be 81.7733.

In the case of `Nc1c(C(=O)NCc2ccccc2)c2nc3ccccc3nc2n1CCO` [CBK267201], the “% of control remaining” value was 87.9886.

In the case of `CC(=O)c1ccc(-c2nccnc2NCc2ccc(C(F)(F)F)cc2)s1` [CBK037983], the “% of control remaining” value came out at 67.9489.

On to `C[C@H](c1ccccc1)n1c(=O)[nH]c2ncc(-c3cccc(/C=C/C(=O)O)c3)nc21` [CBK064983], for which the “% of control remaining” value was 66.8457.

`CC(=O)Nc1ccc(S(=O)(=O)Oc2ccc(C3C4=C(CC(C)(C)CC4=O)N=C4c5ccccc5C(=O)C43)cc2)cc1` (stereo not drawn) [CBK262964]: the “% of control remaining” value came out at 68.1006.

With `CCOC(=O)c1c(-c2ccc(Cl)cc2)csc1NC(=O)CCCC(=O)O` [CBK296929], the “% of control remaining” value was determined as 92.5199.

In the case of `Cn1c2ccccc2c2nnc(SCCCC(=O)c3ccc(F)cc3)nc21` [CBK268830], the “% of control remaining” value is 99.8086.

Take `O=C(CN1CCN(c2ccc([N+](=O)[O-])cn2)CC1)Nc1ccc2c(c1)OCO2` [CBK074679]: the “% of control remaining” value is reported as 93.947.

`O=C1C(C2CCN(Cc3ccc4ncccc4c3)CC2)CC=CCN1Cc1ccccc1` (stereo not drawn) [CBK286269]: the “% of control remaining” value is on record as 81.5484.

With `CN(CCc1cccnc1)CC(=O)Nc1cccc(Cl)c1` [CBK304108], the “% of control remaining” value came out at 110.521.

Take `NC(Cc1ccccc1)CN(CC1(c2ccc(Cl)cc2)CC1)C(=O)Nc1ccc2c(c1)OCO2` (stereo not drawn) [CBK002342C]: the “% of control remaining” value was found to be 25.7017.

Regarding `CCCS(=O)(=O)c1ccc(NC(=O)Nc2ccc(Cl)cc2Cl)cc1` [CBK008564], the “% of control remaining” value is reported as 50.8573.

As to `CCCC(C(=O)NC(C)(C)CN1CCCCC1)n1nc(C)cc1C` (stereo not drawn) [CBK282061], the “% of control remaining” value stood at 142.021.

`O=C(c1ccccn1)N(CCc1ccccc1)c1nc2ccccc2s1` [CBK295151]: the “% of control remaining” value worked out at 100.53.

Turning to `Cc1onc(-c2ccccc2)c1CNC(=O)/C=C/c1ccc2c(c1)OCO2` [CBK144085], the “% of control remaining” value amounted to 101.997.

`CCCC(=O)Nc1ccc2c(c1)nc1n2CCN(Cc2ccccc2)C1` [CBK267129]: the “% of control remaining” value came to 101.611.

With `CC(C)(C)OC(=O)NC(C)(C)C(=O)N1CC(C(=O)O)C(c2cc3ccccc3o2)C1` (stereo not drawn) [CBK003236], the “% of control remaining” value stood at 123.937.

With `CCNC(=S)N(CCc1ccccc1)C1CC(=O)N(c2ccc(F)cc2)C1=O` (stereo not drawn) [CBK262941], the “% of control remaining” value is recorded as 81.8654.

With `Cc1cc(C)n(CCC(=O)NCC(c2ccccn2)N2CCOCC2)n1` (stereo not drawn) [CBK307396], the “% of control remaining” value is recorded as 54.614.

For `CCOC(=O)Cn1c(C)nc(C)cc1=O` [CBK012419], the “% of control remaining” value amounted to 81.5005.

For the compound `Cn1c(=O)n(C)c2cc(S(=O)(=O)NCCC(=O)O)ccc21` [CBK267565], the “% of control remaining” value worked out at 96.2017.

As for `COCC(=O)N1c2ccccc2CC[C@@H]1C(=O)OC` [CBK285472], the “% of control remaining” value is recorded as 74.8451.

Consider `O=C1CC(c2ccccc2)CC(=O)N1c1ccc(N2CCOCC2)cc1` [CBK291191], for which the “% of control remaining” value came to 103.578.

Consider `O=S(=O)([O-])c1cc(S(=O)(=O)O)ccc1Nc1cc2c(nc3ccccc3[n+]2-c2ccccc2)c2ccccc12` [CBK260997N], for which the “% of control remaining” value came out at 53.3668.

Take `CN1C(=O)COc2ccccc2CCCC[C@@H]2[C@H]1CCCN2C(=O)c1cc(=O)[nH]c(=O)[nH]1` [CBK292110]: the “% of control remaining” value was 92.8844.

For the compound `COc1cc(CN2CCC3(CC2)CN(CCO)c2ccccc23)cc(OC)c1OC` [CBK131524], the “% of control remaining” value is given as 78.6151.

Regarding `Clc1cncc(-c2cc3ccccc3[nH]2)n1` [CBK154865], the “% of control remaining” value came to 90.732.

In the case of `C#CCNC(=O)CC[C@H]1CNC(=O)[C@@H]2[C@@H](CCN2Cc2ccccc2)N1C` [CBK289034], the “% of control remaining” value is given as 117.181.

On to `Nc1nc(SCc2nnc(S)n2-c2ccccc2)nc2sc3c(c12)CCC3` [CBK301216K], for which the “% of control remaining” value came to 68.7979.

As to `CCN(CC)Cc1c(O)ccc2cc(-c3nc4ccccc4[nH]3)c(=O)oc12` [CBK263824], the “% of control remaining” value came out at 105.225.

For the compound `O=C(C[n+]1ccc(CCSCc2ccc3c4c(cccc24)CC3)cc1)c1ccc2c3c(cccc13)CC2` [CBK260881B], the “% of control remaining” value came to 59.2239.

As for `O=C(NCC1COc2ccccc2O1)N1CCCC(CO)C1` (stereo not drawn) [CBK156030], the “% of control remaining” value was found to be 99.6252.

Turning to `CC(C)(C)c1cc(C(=O)O)c(CN2CCOCC2)o1` [CBK264052], the “% of control remaining” value worked out at 98.1342.

For the compound `CC(Cc1ccccn1)NC(=O)C1CC2C=CC1C21CC1` (stereo not drawn) [CBK282070], the “% of control remaining” value was found to be 80.2418.

For the compound `Cc1cc(NC(=O)C(C)C)nc2c1c(=O)oc1ccccc12` [CBK287441], the “% of control remaining” value is given as 106.483.

For `Nc1nc(-n2cnnc2)nn1-c1ccccc1` [CBK265015], the “% of control remaining” value is 93.8483.

Regarding `O=C(NC1(c2ccc(F)cc2)CCCC1)c1cnccn1` [CBK283595], the “% of control remaining” value turned out to be 100.852.

As to `COc1ccc2nc(NC(=N)NC(=S)Nc3ccc(Cl)cc3)nc(C)c2c1` [CBK266677], the “% of control remaining” value came to 72.3185.

For the compound `O=c1[nH]nc(SCCOc2c(Cl)c(Cl)c(Cl)c(Cl)c2Cl)c(=O)[nH]1` [CBK262794], the “% of control remaining” value came out at 110.206.

With `Cn1cc(C(=O)N2CCC(c3ccccc3)C2)c2ccccc2c1=O` (stereo not drawn) [CBK281921], the “% of control remaining” value came out at 76.174.

Consider `NC(=O)COc1ccc(C2Nc3ccccc3C(=O)N2C2CC2)cc1` (stereo not drawn) [CBK295198], for which the “% of control remaining” value is given as 100.135.

Turning to `COc1ccc(S(=O)(=O)Nc2cc(N3CCCC3)c3occc3c2)cc1OC` [CBK061975], the “% of control remaining” value came to 64.9939.

Consider `Cn1cc2c(n1)[C@H]1CN(C(=O)c3cc(C(F)(F)F)nn3C)C[C@H]1C2` [CBK283400], for which the “% of control remaining” value is given as 120.314.

Consider `COc1ccc2[nH]cc(CCNC3CCc4cccc(OC)c4C3)c2c1` (stereo not drawn) [CBK016569C], for which the “% of control remaining” value was determined as 46.3537.

Take `CN(C)S(=O)(=O)N1CCN(c2ccc([N+](=O)[O-])c(NC3C4CC5CC(C4)CC3C5)c2)CC1` (stereo not drawn) [CBK268986]: the “% of control remaining” value is 95.0472.

Take `Cc1nnc(Nc2ccc(F)cc2)c2ccccc12` [CBK287873]: the “% of control remaining” value is reported as 75.6538.

As to `O=c1c2ccccc2[nH]c(=S)n1CCCN1CCOCC1` [CBK092141], the “% of control remaining” value worked out at 83.4672.

Regarding `COC1C(O)C(CO)OC1n1cc(C)c(N)nc1=O` (stereo not drawn) [CBK201227], the “% of control remaining” value is 83.689.

`COc1cc2c(cc1OC)C1(CCOCC1)CNC2CC(c1ccccc1)c1ccccc1` (stereo not drawn) [CBK014382]: the “% of control remaining” value is listed as 74.6945.

Turning to `CN1CCC(CN(C)CC2CCCN(Cc3ccccc3)C2)C1` (stereo not drawn) [CBK282946], the “% of control remaining” value is recorded as 88.3977.

With `Fc1ccc2[nH]c3c(c2c1)CCN1C(c2ccccn2)N2CCC31CC2` (stereo not drawn) [CBK284431], the “% of control remaining” value is given as 74.7902.

Take `CCOC(=O)C1CCN(S(=O)(=O)c2ccc(C(C)(C)C)cc2)CC1` [CBK051240]: the “% of control remaining” value worked out at 92.3169.

With `O=C(O)CCC(=O)N1c2ccccc2CC1c1ccccc1` (stereo not drawn) [CBK286860], the “% of control remaining” value turned out to be 88.5628.

Consider `Cn1nc(CO)c2c1CCN(CC(=O)Nc1nc(C(C)(C)C)cs1)C2` [CBK307161], for which the “% of control remaining” value is reported as 46.0844.

Regarding `COc1ccc(CNC2CCCc3c2cnn3C)c(OC)c1` (stereo not drawn) [CBK304875], the “% of control remaining” value was determined as 44.3539.

In the case of `CCc1ccc(CNC(=O)Cn2nnc(-c3ccc(CNC4CCOCC4)cc3)n2)cc1` [CBK161029C], the “% of control remaining” value was 27.297.

In the case of `Cn1c(=O)c2c(ncn2CC(=O)Nc2cccnc2)n(C)c1=O` [CBK133286], the “% of control remaining” value was 90.9774.

In the case of `COc1ccc(CNS(=O)(=O)c2cc(OCC(N)=O)c(C)cc2Cl)cc1` [CBK266495], the “% of control remaining” value came out at 125.592.

For `Cc1ccnn1CCC(=O)N1CCCC1c1cc2cccnc2[nH]1` (stereo not drawn) [CBK282230], the “% of control remaining” value amounted to 82.6367.

Turning to `CCN(C)c1c(C)nc2c(OCc3cccc(Cl)c3)cccn12` [CBK147310], the “% of control remaining” value amounted to 70.3435.

For the compound `COc1cc(/C=N/NC(=O)C2COc3ccccc3O2)cc([N+](=O)[O-])c1O` (stereo not drawn) [CBK261480], the “% of control remaining” value was found to be 99.0173.

`O=C(NC(c1ccccc1)c1ccsc1)C1CCN(S(=O)(=O)c2cccc(Cl)c2)CC1` (stereo not drawn) [CBK060188]: the “% of control remaining” value amounted to 93.1873.

As to `CN(CCN1CCCCC1=O)c1nccc(CCC(F)(F)F)n1` [CBK307218], the “% of control remaining” value is on record as 80.8778.

`CC(=O)N1CCc2cc(C)ccc2C12CCN(CCCOc1ccccc1)CC2` [CBK081064]: the “% of control remaining” value was determined as 92.0082.

Turning to `CCN(CC1CCOCC1)C(=O)Cn1c(C)cc(=O)c2ccccc21` [CBK307230], the “% of control remaining” value is given as 50.2427.

In the case of `CS(=O)(=O)NC1CCN(c2nc(C(F)(F)F)nc3ccsc23)CC1` [CBK304592], the “% of control remaining” value was 63.1438.

With `CC1(C)CC(NC2=CC(=O)CC2)CC(C)(C)N1` [CBK028997], the “% of control remaining” value turned out to be 42.0322.

Take `COc1cc(CN2CCN(Cc3ccccc3)CC2)cc([N+](=O)[O-])c1O` [CBK261574]: the “% of control remaining” value is given as 97.085.

Regarding `CCn1c(C)c(C)n2c3c(=O)n(CCN4CCOCC4)c(=O)n(C)c3nc12` [CBK269786], the “% of control remaining” value stood at 83.3191.

As for `Cc1nc(C(F)(F)F)ccc1C(=O)NCCn1ccnc1C` [CBK281982], the “% of control remaining” value is reported as 107.512.

With `N#CCc1c(-c2ccc(Br)cc2)nc2ccccn12` [CBK172896], the “% of control remaining” value came to 113.701.
